Assay results reported in US8110551B2 (priority 2008, dated 2012).

Target: T1, PTEN (Homo sapiens, UniProt P60484)
T1 construct: gift: Gregory Taylor
Type: biochemical
Details: 0.1 μM PTEN

Compound: [O]=[Mo](=[O])([O-])[O-] [molybdate]
- inhibition of PTEN (in words): failed to inhibit
